The chains are these.
T1: UNK ZnF1-6 (called full-length) (human, UniProt Q9C0B0 30-357)
T1 sequence: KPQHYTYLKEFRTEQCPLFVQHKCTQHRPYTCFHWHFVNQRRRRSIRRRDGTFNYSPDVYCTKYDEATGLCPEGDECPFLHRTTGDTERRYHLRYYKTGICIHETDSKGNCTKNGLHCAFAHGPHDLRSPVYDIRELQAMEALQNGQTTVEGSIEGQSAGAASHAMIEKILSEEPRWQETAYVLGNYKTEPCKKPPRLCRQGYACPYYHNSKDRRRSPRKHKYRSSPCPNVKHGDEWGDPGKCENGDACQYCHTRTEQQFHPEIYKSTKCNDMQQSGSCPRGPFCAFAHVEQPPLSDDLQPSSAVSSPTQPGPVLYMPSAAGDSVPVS

B1: chr6:32841530:32841735:-|CDS|ENSG00000204264|control|control|control (ssRNA)
RNA: GGGAGUUCUACAGUCCGACGAUCACGGGUAGUGGGAACACUUAUGCCUACGGGGUCAUGGACAGUGGCUAUCGGCCUAAUCUUAGCCCUGAAGAGGCCUAUGACCUUGGCCGCAGGGCUAUUGCUUAUGCCACUCACAGAGACCAACAGAGGAUUGAGCAUCA
B2: chr12:39553410:39553513:-|3pUTR|ENSG00000173208|unk|FALSE|unique (ssRNA)
RNA: GGGAGUUCUACAGUCCGACGAUCUAAGAUUCAAACUUUGAGUGACAUUUAGUCCAUUUAUGGUUGAUAUUAGGUUUAAUAGCUAGAAUUCAAAUUGAUUAUUGCUAGUGGCCAACUAAACCUGUACAAAAUAGCUGACAGUUUCAACAGAGGAUUGAGCAUCA
B3: chrX:53432280:53432385:-|CDS|ENSG00000072506|unk|FALSE|unique (ssRNA)
RNA: GGGAGUUCUACAGUCCGACGAUCUGAGAAGGAUGUGCAAACAGCUCUGGCUCUAGCAAAAGGAAAGUUUGGCCGUGUGGAUGUAGCUGUCAACUGUGCAGGCAUCGCGGUGGCUAGCAAGACGUACAACUUAAAGAAGGGCCACAACAGAGGAUUGAGCAUCA
B4: chrX:100644401:100644502:+|5pUTR|ENSG00000102359|unk|FALSE|bound_elsewhere (ssRNA)
RNA: GGGAGUUCUACAGUCCGACGAUCUUAACAGAAUCCCGGAGGCCGGGACAGACCAGGAGCCACUCGUUCUAGGAAUGUUAAAGUAGAAGGUUUUUUCCAAUUGAUGAGAGGAGCAGAGAGGAAGGAGAAAGAGGAGGAGAGAGACAACAGAGGAUUGAGCAUCA
B5: chr19:45489345:45489553:-|CDS|ENSG00000125744|control|control|control (ssRNA)
RNA: GGGAGUUCUACAGUCCGACGAUCAGGACGUCAGGAGUGGUCUUCACAGGCCUGAUGGUCUCCCUCCUCUGCCUCCUGCACUUUAGCAUCGUGUCCGUGGCCGCGCACUUGGCUCUGUUGCUGCUCUGCGGCACCAUCUCUCUCCAACAGAGGAUUGAGCAUCA
B6: chr10:86890108:86890218:+|CDS|ENSG00000107779|unk|FALSE|unique (ssRNA)
RNA: GGGAGUUCUACAGUCCGACGAUCUCAUGGCACUGGGAUGAAAUCAGACUCCGACCAGAAAAAGUCAGAAAAUGGAGUAACCUUAGCACCAGAGGAUACCUUGCCUUUUUUAAAGUGCUAUUGCUCAGGGCACUGUCCAGAUGACAACAGAGGAUUGAGCAUCA
B7: chr3:52708059:52708100:+|3pUTR|ENSG00000114902|msi1_unk|total|mutant (ssRNA)
RNA: GGGAGUUCUACAGUCCGACGAUCACACAAGUAUGAAGUUUCUUUCAGGUGUAAAUAAUGAAAAAUAAAUGCCUCAUAAAUGACCGUACAAUGUAACUAUCAAAGUUUUAUAAUUCAUUAUGAGUUAACCAUUUUAAUGUUUCCCAACAGAGGAUUGAGCAUCA
B8: chr2:101892430:101892531:+|3pUTR|ENSG00000071054|msi1|total|mutant (ssRNA)
RNA: GGGAGUUCUACAGUCCGACGAUCCCAUCCGAGGUUGAUGGGGCAACUGCAGCCCAUGACACAAGAUCUCAUUGUUCUCGAUGCCGAGGGGUUGGCCGCAGACAGGUGGUUACAUCCGAACCGUCACACAAACUGUUCAGUGUUCAACAGAGGAUUGAGCAUCA
B9: chr10:70774212:70774357:-|CDS|ENSG00000166220|control|control|control (ssRNA)
RNA: GGGAGUUCUACAGUCCGACGAUCAAAAGACCUCGCUCUGGGACUCCUGCAGACAGCAGUGGCUCAGCUCCUUCCCCAGCCCCUAGUCUCCAUCCCUACAGAAAAGCUCCUAAGCCAGCUUCCAGAAGUGCAUGAACCUCCUCACAACAGAGGAUUGAGCAUCA
B10: chr4:173248057:173248158:+|CDS|ENSG00000109586|unk|total|mutant (ssRNA)
RNA: GGGAGUUCUACAGUCCGACGAUCUUCAAACCUGUGGUACCAUGGCCUCAUGUUGAAGGAGCCGAAGUGGACUCCGAGUCUAUCCGAAGAAUAAACAAGGCCAAAAAUGAACAAGAGCACCAUGCUGGAGGAGAUUCCCAGAAACAACAGAGGAUUGAGCAUCA
B11: chr20:59325757:59325866:+|3pUTR|ENSG00000124205|unk|total|mutant (ssRNA)
RNA: GGGAGUUCUACAGUCCGACGAUCUUAUGUGGAUCUGUUCAAAGCCGUCACUGUAUAUACGUACCGAGAGGCCGACCGGCCGGCCGAUUUUAAAUUGCAUUCUGAAUACAAACUCAUACUCCUCCGAGCUUGAAUUACAUUUUUCAACAGAGGAUUGAGCAUCA
B12: ENSG00000124766:be:win_751|CDS|ENSG00000124766|bound_else_gene|NA|bound_elsewhere_windowed (ssRNA)
RNA: GGGAGUUCUACAGUCCGACGAUCGGCGCCGCCGCCGACCACCACUCGCUGUACAAGGCGCGGACUCCCAGCGCCUCGGCCUCCGCCUCCUCGGCAGCCUCGGCCUCCGCAGCGCUCGCGGCCCCGGGCAAGCACCUGGCGGAGCAACAGAGGAUUGAGCAUCA
B13: ENSG00000180447:stop:overlap|stop_codon|ENSG00000180447|stop_codon|NA|stop_codon (ssRNA)
RNA: GGGAGUUCUACAGUCCGACGAUCCCCGGGGCGCCUGGACCCCACUCGCCUCCAUCUUGCUGCUGCUGCUUGGGCCGCUCUUUUAGCCCUCGCGCCCCCCGCCGUUGGCUGCGGGAGAGCCCGCGUCCCACUCCCGUGCUCGCCCAACAGAGGAUUGAGCAUCA
B14: ENSG00000107863:be:win_3901|CDS|ENSG00000107863|bound_else_gene|NA|bound_elsewhere_windowed (ssRNA)
RNA: GGGAGUUCUACAGUCCGACGAUCGUGUUUGGUCCCACCCUUGUUCGAACAUCAGAAGACAACAUGACCCACAUGGUCACCCACAUGCCUGACCAGUACAAGAUUGUAGAAACGCUCAUCCAGCACCAUGACUGGUUUUUCACACAACAGAGGAUUGAGCAUCA
B15: chr7:137227872:137228000:-|3pUTR|ENSG00000105894|msi1_unk|total|mutant (ssRNA)
RNA: GGGAGUUCUACAGUCCGACGAUCGGAACAUAAAAAGGACAUCAGCAAACAGGAUCAGUUAACUAUUGCAUUUAUAUGUACCGCCGGCUUUGUAUUCAAAAAUUAUCUACCGCUAAGUACACAAUAAGCAAAAACAAAAAGAAACAACAGAGGAUUGAGCAUCA
B16: chrX:18604022:18604123:+|CDS|ENSG00000008086|msi1|FALSE|unique (ssRNA)
RNA: GGGAGUUCUACAGUCCGACGAUCGACGAAGGUCUCCCUGCCAAUGAAAGCUUCCUAAAUGGAAACCUUGCUGGAGCUAGUCUUAGUCCACUGCACACCAAAACCUACCAAGCAAGCAGCCAGCCUGGGUCUACCAGCAAAGAUCAACAGAGGAUUGAGCAUCA
B17: chr14:22612100:22612201:+|3pUTR|ENSG00000100439|msi1|total|mutant (ssRNA)
RNA: GGGAGUUCUACAGUCCGACGAUCCCACCCCUGACCCAUCUGUCAGCUUUUUCCCAGGGAGCCGUUUCAGGGGUUCUGGGCAGCCGGCUGGGCCUGGCCUCAGAACCUGGUGGCUCCUGCCUGCUCCUUCACUUUUGUAAAACCCAACAGAGGAUUGAGCAUCA
B18: chr1:236581285:236581397:-|CDS|ENSG00000119285|unk|FALSE|unique (ssRNA)
RNA: GGGAGUUCUACAGUCCGACGAUCCAUCUAGAAGAUGUUUUUCAGUUAUUCAAGUUCUGUUCUGUUUUAUGGACCUAUGGUUCUAGCCUUUCAAAUCCACUAAACUGCAGUGUGAAAACAGUGCUGCAGACUCAAGCUCUUUAUCAACAGAGGAUUGAGCAUCA
B19: chr7:21908192:21908293:-|CDS|ENSG00000164649|msi1|total|mutant (ssRNA)
RNA: GGGAGUUCUACAGUCCGACGAUCUUUUCCCGCGCACGCUUACAGAAUGAGAAAAAAACAAUUCUUGAAAGAAAGAAAGACUGCCGACAGGUGAUACAAAGGGAAGAUUCUACCUCUGAGUCUGAGGAUGACUCUCGGGAUGAGCAACAGAGGAUUGAGCAUCA
B20: chr3:48467913:48467962:-|3pUTR|ENSG00000164054|msi1_unk|total|mutant (ssRNA)
RNA: GGGAGUUCUACAGUCCGACGAUCCCCAGACAUGAAUACCUCGUGUUCCUCCUCCCUCUAUUACUGUUUCACCAGAGCUGUCUCCGCUCAAAUCUGUUGUGUUUCUGAGUCCCGGGUCUGUACACUUGUUUAUAAUAAAUGCAACAACAGAGGAUUGAGCAUCA
B21: chr20:23354638:23354749:+|3pUTR|ENSG00000132661|unk|FALSE|unique (ssRNA)
RNA: GGGAGUUCUACAGUCCGACGAUCAAGUUCUAGGAGUCCCUUUCCUGAAUAUAUACUUGUUUGUCAUAGUUUCCUUUUCAAAGUAGUAAACUUUUCUAUUUUUCUACUUGCCCAGUAGAGACUCUGAUUCUGGAAAUUCUGACACAACAGAGGAUUGAGCAUCA
B22: chr13:29511929:29512034:-|3pUTR|ENSG00000139514|msi1_unk|FALSE|overlapping (ssRNA)
RNA: GGGAGUUCUACAGUCCGACGAUCUAUCAUAUCCCUCAUUUCUUUCCCUGAAAUAAAAAUACACACAAGCAAAAAAAAAAUGAUAGUUUCACAUCUCUUAGUUCCCUUGCCCAAACAAGAAUAUUCUUAGUUCCACUGGCCAGGCAACAGAGGAUUGAGCAUCA

Some of the results follow.

In this test the target is T1, UNK ZnF1-6 (called full-length). Nature of the test: nsRBNS (natural sequence RNA bind-n-seq); RBNS binding buffer (assumed for nsRBNS): 25 mM Tris pH 7.5, 150 mM KCl, 3 mM MgCl2, 0.01% Triton X-100, 500 ug/ml BSA, 20 U/ml SUPERase-In, 4 C; UNK is unkempt and MSI1 is Musashi-1; names of the RNAs are library labels; protein concentration not given here; high values mean tight binding.
In turn, B1 displayed a binding signal of 0.431 enrichment R.

B2 displayed a binding signal of 1.69 enrichment R. Next, B3: 0.758 enrichment R; B4: 1.6 enrichment R; B5: 0.915 enrichment R. B6 gave a binding signal of 0.599 enrichment R. The result for B7 reads 0.406 enrichment R; that for B8, 0.578 enrichment R. The result for B9 reads 1.26 enrichment R; that for B10, 0.414 enrichment R. Consider B11, for which the binding signal was 0.421 enrichment R. Next, B12: 0.661 enrichment R; B13: 0.701 enrichment R; B14: 0.634 enrichment R. The result for B15 reads 0.517 enrichment R; that for B16, 0.857 enrichment R; that for B17, 0.714 enrichment R. The result for B18 reads 1.2 enrichment R; that for B19, 0.512 enrichment R; that for B20, 0.878 enrichment R. B21 returned a binding signal of 1.22 enrichment R. The molecule B22 gave a binding signal of 1.65 enrichment R.

For the origin of these results see PMC12136788.
